In all, about 81,000 sequences were measured (“one-hybrid fitness for binding NBS DNA”: median about -0.1, highest 2% from about 0.36 on). Some of the results follow.
B1: Caulobacter ParB omega fusion; a variant is named by its letters at X, in order, B8GW30 (parent)
chain: MESVVVGEPGMSEGRRGLGRGLSALLGEVDAAPAQAPGEQLGGSREAPIEILQRNPDQPRRTFREEDLEDLSNSIREKGVLQPILVRPSPDTAGEYQIVAGERAWRAAQRAGLKTVPIMVRELDDLAVLEIGIIENVQRADLNVLEEALSYKVLMEKFERTQENIAQTIGKSXSHVANXMRLLXLPDEVQSYLVSGELTAXHARAIAAAADPVALAKQIIEGGLSVRETEALARKAPNLSAGKSKGGRPPRVKDTDTQALESDLSSVLGLDVSIDHRGSTGTLTITYATLEQLDDLCNRLTRGI

Variants of: B1
Test: one-hybrid fitness for binding NBS DNA (the Noc-binding site; scaled: cognate 1, non-cognate 0); higher = stronger binding
Details: with NBS DNA site
Procedure, shortened: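 Pre- and post-selection plasmids were Illumina-sequenced, three replicate libraries were pooled, and any variant with under 10 reads was removed. The libraries were Caulobacter ParB with four specificity codons randomised, selected in E. coli USO through a HIS3 reporter whose site is 19 bp from the promoter. Cells grew 48 hours at 37°C on M9 without histidine, with 0.1 mM IPTG and 5 mM 3-AT. Fitness is the log change in variant-to-wild-type read ratio, rescaled against cognate and non-cognate.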

Variant | one-hybrid fitness for binding NBS DNA
HRSI | ≤ 0.2
SVST | ≤ 0.2
RFCP | ≤ 0.2
DPLK | ≤ 0.2
RMAH | ≤ 0.2
QFKR | 0.595
EHVC | ≤ 0.2
GCAR | ≤ 0.2
QLAW | ≤ 0.2
GAAV | ≤ 0.2
SMTA | ≤ 0.2
WHLM | ≤ 0.2
EYNS | ≤ 0.2
TIDA | ≤ 0.2
TCAH | ≤ 0.2
DCAF | ≤ 0.2
NTYC | ≤ 0.2
AHWG | ≤ 0.2
QDIE | ≤ 0.2
RFKM | ≤ 0.2
GIRS | ≤ 0.2
RLAP | ≤ 0.2
HLAF | ≤ 0.2
RNGQ | ≤ 0.2
QESF | ≤ 0.2
VESI | ≤ 0.2

Variant | one-hybrid fitness for binding NBS DNA
TETV | ≤ 0.2
SHNL | ≤ 0.2
WGTF | ≤ 0.2
PFRA | ≤ 0.2
ITFI | ≤ 0.2
TYMP | ≤ 0.2
RMIK | ≤ 0.2
SKRM | ≤ 0.2
HDFS | ≤ 0.2
GGQP | ≤ 0.2
YEHR | ≤ 0.2
IYAT | ≤ 0.2
NRIQ | ≤ 0.2
RQKG | ≤ 0.2
PKKV | ≤ 0.2
VTIL | ≤ 0.2
GSWY | ≤ 0.2
CLKH | ≤ 0.2
EYAP | ≤ 0.2
HLCR | ≤ 0.2
SSET | ≤ 0.2
LLVY | ≤ 0.2
MACT | ≤ 0.2
GWMY | ≤ 0.2
KWNS | ≤ 0.2
ERLL | ≤ 0.2

Variant | one-hybrid fitness for binding NBS DNA
PWNS | ≤ 0.2
NETL | ≤ 0.2
QTAS | 0.51
NSGN | ≤ 0.2
RNKN | ≤ 0.2
QVST | 0.318
CTNT | ≤ 0.2
SPLW | ≤ 0.2
WYHM | ≤ 0.2
NRNN | ≤ 0.2
VNIG | ≤ 0.2
VHRH | ≤ 0.2
QRSP | ≤ 0.2
IYRY | ≤ 0.2
TDLC | ≤ 0.2
TYRK | ≤ 0.2
MSYV | ≤ 0.2
FGRC | ≤ 0.2
MPTR | ≤ 0.2
HLPD | ≤ 0.2
QSMN | ≤ 0.2
RDRV | ≤ 0.2
LAQV | ≤ 0.2
THHM | ≤ 0.2
CRSQ | ≤ 0.2
VQTI | ≤ 0.2

Variant | one-hybrid fitness for binding NBS DNA
KKLN | ≤ 0.2
NDRD | ≤ 0.2
LCDV | ≤ 0.2
KFNR | ≤ 0.2
QWAK | ≤ 0.2
NENV | ≤ 0.2
NINL | ≤ 0.2
FNDS | ≤ 0.2
AFMC | ≤ 0.2
NAYR | ≤ 0.2
ALTF | ≤ 0.2
EIGR | ≤ 0.2
VWTN | ≤ 0.2
TAES | ≤ 0.2
KEIS | ≤ 0.2
NCTR | ≤ 0.2
CEPP | ≤ 0.2
YPLP | ≤ 0.2
ELVV | ≤ 0.2
QGHV | ≤ 0.2
QYLF | ≤ 0.2
FHAG | ≤ 0.2
YLDD | ≤ 0.2
WLEY | ≤ 0.2
RRNR | 0.813
APHQ | ≤ 0.2

Variant | one-hybrid fitness for binding NBS DNA
TPLP | ≤ 0.2
KKVT | ≤ 0.2
EFAA | ≤ 0.2
GKTI | ≤ 0.2
VPNK | ≤ 0.2
PINE | ≤ 0.2
FSLT | ≤ 0.2
PWVD | ≤ 0.2
LMQT | ≤ 0.2
QHGE | ≤ 0.2
ENQI | ≤ 0.2
DRQR | ≤ 0.2
GMDI | ≤ 0.2
PGHQ | ≤ 0.2
ECMV | ≤ 0.2
YSME | ≤ 0.2
AMRT | ≤ 0.2
QRWF | ≤ 0.2
PMRP | ≤ 0.2
RNVG | ≤ 0.2
VDPN | ≤ 0.2
QRNA | 0.632
TMLF | ≤ 0.2
NGGA | ≤ 0.2
ERVE | ≤ 0.2
PRLN | ≤ 0.2

Variant | one-hybrid fitness for binding NBS DNA
KWWG | ≤ 0.2
WQPR | ≤ 0.2
VSTY | ≤ 0.2
PSTY | ≤ 0.2
SYEV | ≤ 0.2
AKHW | ≤ 0.2
KQPI | ≤ 0.2
PNPD | ≤ 0.2
LSCC | ≤ 0.2
MVKV | ≤ 0.2
QSFE | ≤ 0.2
TGYF | ≤ 0.2
RNEK | ≤ 0.2
RQNF | ≤ 0.2
TGAL | ≤ 0.2
TFNM | ≤ 0.2
RHLE | ≤ 0.2
GRNW | ≤ 0.2
SVSN | ≤ 0.2
QAAA | ≤ 0.2
INAM | ≤ 0.2
QNHN | ≤ 0.2
FWMS | ≤ 0.2

Reference: a collection of fitness landscapes (doi:10.1016/j.celrep.2020.107928)
